Experimental data from PubChem BioAssay AID463173 (ICCB-Longwood Screening Facility, Harvard Medical School, 2010).
The campaign covered roughly 52,000 compounds. About 1,700 (3.3%) were called active. Cut-off read from the data, not from the text of the source: active = survival mostly below about 52% (no sharp cut-off); inactive = mostly above about 56%. The list shows a part of the results.

What follows are compounds tested on Wild type (assay: growth inhibition of S. aureus wild type versus tarO mutant, primary screen, teichoic acid synthesis inhibitors, RN4220, OD600 (AID 463173)). Details: S. aureus RN4220 wild type/DeltatarO growth, OD600, 18 h, active compounds read low, screened at 18.75 µg/mL (by protocol).

Row | SMILES | survival
1 | Cc1cccc(C(=O)Nc2ccc3oc(-c4ccncc4)nc3c2)c1 | inactive: 74%
2 | COc1ccc(-c2[nH]c3ccccc3c2SCCNC(=O)c2ccc(S(=O)(=O)N(C)C)cc2)cc1 | inactive: 81%
3 | COc1ccc(S(=O)(=O)NCC(c2ccc(N(C)C)cc2)N2CCOCC2)cc1 (stereo unspecified) | inactive: 88%
4 | COC(=O)c1cccc(Nc2nn3c(=O)c4cc5c(cc4nc3s2)OCO5)c1 | inactive: 75%
5 | S=c1oc(-c2ccccc2)nn1CNc1ccccc1 | inactive: 92%
6 | COc1ccc(CNC(=O)CSc2ncc(S(=O)(=O)c3ccc(Br)cc3)c(=O)[nH]2)cc1 | inactive: 64%
7 | Cc1ccc2[nH]c3c(=O)n(CC(=O)NC(C)C)ncc3c2c1 | active: 1%
8 | Cc1nn(-c2ccc(N3CCOCC3)nn2)c(C)c1CCC(=O)NCc1ccccc1F | inactive: 94%
9 | CCCCOc1ccc(CNC(=O)Cc2ccc(NC(=O)N3CCSc4ncccc43)cc2)cc1 | inactive: 123%
10 | CCNc1oc(-c2ccc(COc3ccc(Cl)cc3)o2)nc1C#N | inactive: 86%
11 | O=C(CSC1=Nc2ccccc2N=C(c2ccc(F)cc2)C1)NCc1ccccc1Cl | inactive: 78%
12 | CCOc1ccc(CNC(=O)c2sc3ncnc(N(C)C4CCCCC4)c3c2C)cc1 | inactive: 88%
13 | NC(=O)c1ccccc1NC(=O)Cn1nc(Cc2cccnc2)c2ccccc2c1=O | inactive: 66%
14 | O=C(O)CC1NC(=S)N(Cc2ccccc2)C1=O (stereo unspecified) | inactive: 108%
15 | Cc1cc(N(C(=O)Cn2nnc3ccccc32)C(C(=O)NCC2CCCO2)c2ccc(F)cc2)ccc1-n1cnnn1 (stereo unspecified) | inactive: 104%
16 | Cc1ccc(Cl)cc1NC(=O)CSc1nc2c(c(=O)[nH]1)CN(Cc1ccccc1)CC2 | inactive: 82%
17 | COc1ccc(S(=O)(=O)N2CCN(CC(=O)Nc3ccc(Cl)c(C(F)(F)F)c3)CC2)cc1 | inactive: 73%
18 | O=C(CSc1ncc(CO)n1Cc1ccc(Cl)cc1)NCc1ccc(F)cc1 | active: 14%
19 | COc1ccc(C(=O)Oc2cc(-c3ccc4c(c3)OCO4)cc(=O)c3c(C)oc(C)c23)cc1 | inactive: 117%
20 | Cc1cccc(NC(=O)CSc2nc(=O)n(Cc3ccccn3)c3c2CCC3)c1C | inactive: 94%
21 | COc1ccc(CNC(=O)c2cc3cccc4c3n2CC(C)S4)c(OC)c1 (stereo unspecified) | inactive: 127%
22 | COC(=O)c1cc2oc(C)cc2n1CC(=O)Nc1cc(Cl)ccc1OC | inactive: 88%
23 | O=C(CC12CC3CC(CC(C3)C1)C2)N1CCCOC1 | inactive: 114%

Row | SMILES | survival
24 | Cc1ccc(-c2onc(C)c2C)cc1S(=O)(=O)Nc1ccc(Cl)cn1 | inactive: 89%
25 | Cc1ccccc1C(=O)Nc1ccc(C(=O)OCc2cc(=O)n3nc(C(C)C)sc3n2)cc1 | inactive: 65%
26 | O=C1CC(c2ccc3c(c2)OCO3)CC2=C1C(c1ccncc1)Nc1ccccc1N2 (stereo unspecified) | inactive: 81%
27 | COc1ccc(NC(=O)C2Cc3ccccc3N2C(=O)c2ccccc2)cc1OC (stereo unspecified) | inactive: 120%
28 | CCCNC(=O)CSc1nc(-c2ccccc2)cc(C(F)(F)F)n1 | inactive: 112%
29 | CCOC(=O)c1ccc(NC(=O)CCc2c(C)nc3c(-c4ccc(F)cc4)c(C)nn3c2C)cc1 | inactive: 88%
30 | CCOc1ccc(NC(=O)N(C(C)C)C2CCN(C(C)=O)CC2)cc1 | inactive: 64%
31 | CCOc1ccc(-c2cn3c(n2)sc2cc(C(=O)NC4CCCc5ccccc54)ccc23)cc1 (stereo unspecified) | inactive: 100%
32 | Cc1ccc(NC(=O)CC(C)S(=O)(=O)c2ccc3c(c2)NC(=O)CO3)cc1C (stereo unspecified) | inactive: 100%
33 | Cc1cccc(NC(=O)CSc2nc3c(oc4ccccc43)c(=O)n2-c2ccc(F)cc2)c1 | inactive: 74%
34 | COc1ccc(Nc2cc(C(=O)NCc3ccccc3)c3ccccc3n2)c(OC)c1 | inactive: 128%
35 | Cc1oc2ccc(O)c(CN3CCCC3)c2c1C(=O)Nc1cccc(Cl)c1C | inactive: 89%
36 | O=S(=O)(c1ccc2nc(N3CCN(c4ccccc4)CC3)ccc2c1)N1CCCCC1 | active: 1%
37 | COc1ccc(-c2noc(-c3cccc(OC)c3OC)n2)cc1 | active: -3%
38 | COc1ccc(N(Cc2cccs2)C(=O)COc2cc(C)c(Cl)c(C)c2)cc1 | inactive: 79%
39 | CCOc1ccc2nc(NC(=O)c3cc(=O)c4cc(C)cc(C)c4o3)sc2c1 | inactive: 83%
40 | CN(C)c1ccc(-c2nnn(CC(=O)N(C)C3CCCCC3)n2)cc1 | inactive: 104%
41 | COc1ccc(NC(=O)c2cn3c4c(ccc(Cl)c4c2=O)OC(C)C3)cc1OC (stereo unspecified) | inactive: 124%
42 | CSc1ncc(C(=O)Nc2ccc(C(C)=O)cc2)c(-c2ccccc2)n1 | inactive: 83%
43 | O=C(NCC1CCCO1)c1cccc2ccccc12 (stereo unspecified) | inactive: 111%
44 | COc1ccc(Cl)cc1NC(=O)Cn1cc2c(n1)CCC(C)C2 (stereo unspecified) | inactive: 85%
45 | O=c1c2cnn(-c3ccc(F)cc3)c2ncn1Cc1ccc(F)cc1 | inactive: 80%
46 | COc1ccc(CNC(=O)C2Cc3cc(S(=O)(=O)N4CCCCCC4)ccc3N2C(C)=O)cc1 (stereo unspecified) | inactive: 69%
